Measured values taken from publication PMC4336329 (PLoS ONE, 2015).
Among all 310,000 compounds or so, about 14,000 (4.5%) showed an effect of 50% or more. Effects have a minus sign here. The list shows a part of the results.

Target: human ether-à-go-go-related gene (hERG) potassium channel (human, UniProt Q12809)
Test: primary screen, population patch clamp on CHO cells stably expressing hERG
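Also: peak tail current of the secondary pulse compared with the same well before compound.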

human ether-à-go-go-related gene (hERG) potassium channel, sequence (Q12809 whole entry, looked up): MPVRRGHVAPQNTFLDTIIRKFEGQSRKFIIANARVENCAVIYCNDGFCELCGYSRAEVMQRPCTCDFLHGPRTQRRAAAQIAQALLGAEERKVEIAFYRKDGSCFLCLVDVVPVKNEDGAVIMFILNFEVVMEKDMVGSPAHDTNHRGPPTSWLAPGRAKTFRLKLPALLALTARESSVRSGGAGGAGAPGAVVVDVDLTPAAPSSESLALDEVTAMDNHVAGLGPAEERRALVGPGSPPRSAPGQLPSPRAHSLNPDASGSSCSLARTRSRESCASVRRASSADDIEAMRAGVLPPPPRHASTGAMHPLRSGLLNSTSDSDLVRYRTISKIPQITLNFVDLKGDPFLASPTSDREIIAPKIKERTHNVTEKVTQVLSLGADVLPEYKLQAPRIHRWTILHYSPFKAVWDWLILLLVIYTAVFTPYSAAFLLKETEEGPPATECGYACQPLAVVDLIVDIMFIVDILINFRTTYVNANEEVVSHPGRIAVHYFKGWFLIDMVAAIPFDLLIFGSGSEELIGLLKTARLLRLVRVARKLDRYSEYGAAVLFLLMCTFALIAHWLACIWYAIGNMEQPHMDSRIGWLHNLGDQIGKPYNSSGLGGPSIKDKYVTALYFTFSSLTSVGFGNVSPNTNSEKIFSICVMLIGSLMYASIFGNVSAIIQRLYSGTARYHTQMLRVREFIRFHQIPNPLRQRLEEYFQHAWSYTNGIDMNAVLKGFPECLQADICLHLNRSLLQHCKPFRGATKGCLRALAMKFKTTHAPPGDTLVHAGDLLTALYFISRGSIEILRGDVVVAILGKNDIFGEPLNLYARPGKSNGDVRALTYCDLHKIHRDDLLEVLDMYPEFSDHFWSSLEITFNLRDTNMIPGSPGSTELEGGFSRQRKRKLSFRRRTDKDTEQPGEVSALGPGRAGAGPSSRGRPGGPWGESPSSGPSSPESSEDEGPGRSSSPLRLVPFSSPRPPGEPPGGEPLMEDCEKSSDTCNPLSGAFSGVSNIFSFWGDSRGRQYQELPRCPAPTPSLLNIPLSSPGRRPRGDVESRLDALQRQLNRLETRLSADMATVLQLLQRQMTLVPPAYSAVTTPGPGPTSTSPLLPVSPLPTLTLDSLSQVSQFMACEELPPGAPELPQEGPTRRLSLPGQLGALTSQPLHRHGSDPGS

SMILES | hERG current change (%, negative = inhibition) at 10uM [%]
Cc1cc(NC(=O)c2cncc(Br)c2)no1 | 10.3
CCC(C)N1C(=O)CN(C2CCCCCC2)C(=O)C1c1ccccc1F (stereo not shown) | 2.67
CNC(=O)NC1CCCc2ccccc21 (stereo not shown) | 14
COc1ccc(NC(=O)CN(C)C(=O)C(CCSC)NC(=O)c2ccccc2)cc1 (stereo not shown) | 5.37
Cc1cccc(N2C(=O)CC(N3CCOCC3)C2=O)c1 (stereo not shown) | 11.8
COc1ccc(NCc2ccsc2)cc1 | 2.52
CC(=O)OCC(=O)[C@@]12OC(C)(C)O[C@@H]1C[C@H]1[C@@H]3C[C@H](F)C4=CC(=O)C=C[C@]4(C)[C@@]3(F)[C@@H](O)C[C@@]12C | 5.05
Cc1oc(C)c(C(=O)Nc2ccc(CC(=O)O)cc2)c1C(=O)Nc1ccc(CC(=O)O)cc1 | 12.9
CC(C)(C)c1cc(CNC2CS(=O)(=O)C[C@@H]2O)cc(C(C)(C)C)c1O (stereo partly shown) | 5.1
COc1cc(Cl)ccc1S(=O)(=O)n1nc(C)cc1C | 2.21
Cc1cc(C)cc(NC(=O)c2ccc(CNc3c(N4CCOCC4)c(=O)c3=O)cc2)c1 | 4.46
COc1ccc(NC(=O)Cn2nnc(-c3ccccc3N)n2)cc1OC | -1.88
O=C(CC1Oc2ccc(Cl)cc2NC1=O)NC1CCCCCC1 (stereo not shown) | 6.76
CCN1CCN(c2nc(Nc3ccccc3)nc(N)c2[N+](=O)[O-])CC1 | -63
O=C1CCN(Cc2ccccc2)S(=O)(=O)c2c(F)cc(F)cc21 | -14.1
COc1ccccc1/C=C\C=N\n1c(C2CCCCC2)n[nH]c1=S | -3.24
O=C(Nc1nc2c(s1)CCCC2)Oc1ccccc1 | 14.3
COC(=O)C1=C[C@@H](C(=O)OC)[C@@H]2C3=C(C(=O)[C@@]2(C)NC(=O)c2ccccc2)[C@H](C)C(C(=O)OC)=C(C(=O)OC)[C@@H]3C1 | -3.1
N#CC1=C(Nc2ccccc2)SC=C(c2ccc(F)cc2)N=C1N1CCOCC1 | -10.8
COc1ccc(/C(O)=C2/C(=O)C(=O)N(c3ncccn3)C2c2ccc(OC)cc2)cc1 (stereo not shown) | 16.2
COC(=O)c1ccc(OC(=O)N2CCOCC2)cc1 | 13.8
Cc1ccc(C(=O)NC(=S)N2CCN(C(=O)OC(C)(C)C)CC2)cc1Br | 14.2

SMILES | hERG current change (%, negative = inhibition) at 10uM [%]
Cc1ccc(NC(=O)CCn2cccc2)cc1 | 2.67
CCCOCCc1nnc(N)s1 | 21.7
C=C(C)CNC(=S)N/N=C(\C)c1ccc(-n2ccnc2)cc1 | -37.7
Nc1cc(N)cc(C(=O)Nc2ccc3c(c2)C(=O)NC3=O)c1 | 12.1
CN1C(C(=O)N2CCC3(CC2)OCCO3)=CC(c2ccc(F)cc2)=NS1(=O)=O | 5.13
COc1ccccc1C1CC(c2ccc(NS(C)(=O)=O)cc2)=NN1C(=O)c1ccccc1 (stereo not shown) | -50.9
CC(=O)Nc1ccc(S(=O)(=O)n2nc(-c3ccc(C)cc3)nc2N)cc1 | 14.3
Cc1oc2cc(O)cc(C)c2c(=O)c1-c1cnn(-c2ccccc2)c1 | 8.31
Cl.N=c1c2c(n(Cc3cccc(Cl)c3)c3c1CCC3)CCCC2 | -0.0862
CCOC(=O)N1CCN(C(=O)CSCC(=O)N=c2sc3ccccc3n2C)CC1 | -17.6
COc1ccc(CCNC(=O)CS(=O)(=O)c2cn(CC(=O)N3CCCC3)c3ccccc23)cc1OC | 8.22
O=C(CO/N=C/c1ccc(OC(F)F)cc1)NCc1ccc(F)cc1 | -79.2
CCOC(=O)NN1C(=O)c2ccccc2NC1c1ccccn1 (stereo not shown) | 8.02
Cc1ccc(C)c(S(=O)(=O)N2CCC3(CC2)OCCO3)c1 | -9.48
CC(C)CCNC(=O)NC(=O)COc1c(F)c(F)cc(F)c1F | -7.4
CCCNc1nc(=S)n(-c2ccccc2)c(C)c1C(C)=O | 20.5
CC1CN(CC(=O)Nc2ccc(S(N)(=O)=O)cc2)CC(C)O1 (stereo not shown) | -52
CCCCOc1ccc(/C=N/NC(=O)c2csc(C)c2C)cc1 | 16.8
CCc1cc(=O)oc2cc(OCC(=O)N3C[C@H]4C[C@@H](C3)c3cccc(=O)n3C4)c(Cl)cc12 | -3.61
CC(=O)c1ccccc1NC(=O)COC(=O)Cc1cccc(C(F)(F)F)c1 | -10.3
COCCNC(=S)N(CCc1c(C)[nH]c2ccc(Cl)cc12)Cc1cccs1 | 57.7
COc1ccc(NS(=O)(=O)c2cn(C)cn2)cc1OC | 22

SMILES | hERG current change (%, negative = inhibition) at 10uM [%]
O=C(O)CC(c1ccc(OC2CCCC2)cc1)N1C(=O)c2ccccc2C1=O (stereo not shown) | 11.8
O=C(CCn1nc(-c2ccc(Cl)cc2)ccc1=O)N1CCN(c2ccccc2)CC1 | -45.9
Cc1cc(C)c(Cn2ncn(-c3ccc(Br)cc3)c2=O)c(C)c1 | 19.4
CCc1ccc(/C=C(/C#N)C(N)=S)s1 | 6.05
Cc1nc(C)c(C(=O)C2=C(O)C(=O)N(CCN3CCOCC3)C2c2cccs2)s1 (stereo not shown) | 5.12
Cc1c(NC(=O)C2CCCN2S(=O)(=O)c2ccc(Cl)cc2)c(=O)n(-c2ccccc2)n1C (stereo not shown) | -1.73
CN(Cc1nc2ccccc2c(=O)[nH]1)C(=O)c1ccc(S(=O)(=O)N2CCCC2)cc1 | -38.8
COc1ccc2c(CC(=O)Nc3ccccc3OC)coc2c1 | -4.03
CC(=O)c1cc(NC(=O)c2ccc(C)cc2)c(=O)oc1C | 14.6
N#CC[C@H](Cc1ccccc1)N1CCN(Cc2ccccc2)CCC1=O | -24
COC(=O)c1cc2sc(Cl)cc2n1Cc1nc(-c2ccccc2)oc1C | 3.5
O=C1c2cccc(O)c2C(=O)c2c(O)cc(CO)cc21 | 11.2
Cc1cc(S(=O)(=O)NC2CCCCC2)ccc1OCC(=O)NCc1ccccn1 | -13.1
CC1=CCC2COC(c3ccc[n+](Cc4ccccc4)c3)C1C2.[Cl-] (stereo not shown) | -7.19
CC(C)(C)c1ccccc1NC(=O)CN1C(=O)NC2(CCCC2)C1=O | 1.01
Cc1ccc(C)c(NC(=S)N(C2CCCCC2)C(C)c2cccnc2)c1 (stereo not shown) | -13.9
O=C(CSc1ncnc2nc[nH]c12)N1CCN(c2ccccc2)CC1 | -8.74
O=C(COC(=O)CNS(=O)(=O)c1cccc(Br)c1)Nc1ccccc1Sc1ccccc1 | 12.3
O=C(Nc1cnn(C23CC4CC(CC(C4)C2)C3)c1)c1cnn2c(C(F)(F)F)cc(-c3ccco3)nc12 | -3.81
COCCn1nnnc1C(c1ccccc1OC)N1CCN(c2ccccc2)CC1.Cl (stereo not shown) | -4.6
COc1ccc(NC(=O)c2cccc(Cn3cc(Br)c([N+](=O)[O-])n3)c2)c(C)c1 | -72
O=C(OCC(=O)c1c[nH]c2ccccc12)c1cc(S(=O)(=O)N2CCOCC2)ccc1F | -2.91

SMILES | hERG current change (%, negative = inhibition) at 10uM [%]
Cc1ccc(S(=O)(=O)N(Cc2ccccc2)C(C)C)cc1 | -4.5
COc1ccc(C2CC(c3cccs3)=NN2C(=O)CSc2nncs2)cc1OC (stereo not shown) | -43.2
COC(=O)c1ccc(C(=O)OC)c(NC(=S)N2CC(C)CC(C)C2)c1 (stereo not shown) | 3.44
Cc1nn(-c2cccc(Cl)c2)c2nc(C(F)(F)F)[nH]c(=O)c12 | 25.5
O=C(Cc1ccc(Br)cc1)N1CCCC1 | 19.3
CCOCCCNC(=O)Cn1nc(Cc2ccncc2)c2ccccc2c1=O | 5.25
N#Cc1nc(Cc2ccccc2)oc1NCc1ccccc1 | -40.5
NC(=O)CN1N=C(c2cc(Cl)sc2Cl)CSC1=O | -4.87
CCc1ccc(N2CC(C(=O)NCC(C)(C)N3CCOCC3)CC2=O)cc1 (stereo not shown) | 5.36
CCCC(=O)N(CCN(C(=O)CCC)c1ccccc1)c1ccccc1 | -17.8
CCCc1cc(C(=O)Nc2cc(C)ccc2O)no1 | -5
COCCN(C(=O)COC(=O)c1sccc1C)c1c(N)n(Cc2ccccc2)c(=O)[nH]c1=O | 15.4
O=C(O)c1ccc(NC(=O)C2CC=CCC2C(=O)O)cc1 (stereo not shown) | -49.5
N#C/C(=C\c1c(F)cccc1Cl)C(=O)NC1CC1 | -16.5
O=C(Cc1ccccc1)N/N=C/c1ccc(OC(=O)/C=C\c2ccco2)cc1 | 8.06
CCOC(=O)Cc1nn(CC)c(=O)c2ccccc12 | 27.5
CC1Cc2ccccc2N1C(=O)CSc1nnc2c(n1)[nH]c1ccc(F)cc12 (stereo not shown) | 12.6
Cc1[nH]c(C)c(S(=O)(=O)NCc2ccc(Cl)cc2)c1C(=O)N1CCCC1 | -2.62
O=C1Nc2cc(C(=O)N3CCOCC3)ccc2SC1N1CCOCC1 (stereo not shown) | 7.46
Cc1ccc(C(=O)C2CCN(CC(=O)Nc3nc(C)cs3)CC2)cc1 | -24.8
COC(=O)c1cccnc1NC(=S)NC(C)C | 19.2
C/C(=N\NS(=O)(=O)c1ccc(C)cc1)c1ccc(C)s1 | 19.9
